Results from PubChem BioAssay AID1963576 (National Center for Advancing Translational Sciences (NCATS), 2024).
In all, about 46,000 compounds went through this assay and about 60 (0.1%) were called active. Roughly 3% stayed inconclusive and do not appear here. Calls follow the shape of the dose curve; as a rule, active = well fitted inhibition curve with a large enough effect; inconclusive = small, poorly fitted or top-dose-only effect; inactive = no such curve, though single readings can be large or run the other way. Some of the results follow.

assay: Primary qHTS assay for Inhibitors of ovarian cancer metastasis using an organotypic tumor microenvironment (TME) model.; also: nearly all actives have a fitted effect of over 65% in size;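 as to activity change, negative = inhibition: plate controls were DMSO wells for no effect and tomatine positive control wells for full effect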; conditions: SKOV3ip1-GFP adhesion/invasion on 3D omental model, fluorescence; series mostly up to 45.8 µM; activity change, negative = inhibition: at the top concentration
Method in brief: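 A 3D layer of primary human omental fibroblasts, mesothelial cells, fibronectin and collagen I, grown 48 hr, received SKOV3ip1-GFP cells in serum-free medium plus compounds at 0.36-46 umol/L. After 2 hr RT and 16 hr 37 C, fixed adherent GFP cells were counted; normalized to DMSO and tomatine.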

SMILES	outcome	activity change, negative = inhibition
CN(C)S(=O)(=O)c1ccc2c(c1)N(CC(=O)Nc1ccc(OC(F)(F)F)cc1)C(=O)CS2	inactive	
CCOC(=O)c1c(S(=O)(=O)N2CCC(C(=O)NCc3ccc(F)cc3)CC2)c(C)n(C)c1C		inactive: -8.39%
COc1ccc(NC(=O)CN2CCN(Cc3ccc(F)cc3)S2(=O)=O)cc1Cl		inactive: 5.3%
COc1ccc(NC(=O)c2cc(S(=O)(=O)N3CCCCCC3)cn2C)c(OC)c1		inactive: -5.97%
CC(C)(C(=O)NCC(F)(F)C(F)(F)F)C(=O)N[C@@H]1C(=O)Nc2ccccc2-c2ccccc21		inactive: -26.2%
CCOC(=O)c1c(C)[nH]c(C)c1S(=O)(=O)N1CCC(C(=O)N2CCN(c3ccccc3)CC2)CC1		inactive: 21.9%
CCC(=O)N1CCc2cc(Br)cc(S(=O)(=O)N3CCN(c4ccc(C)cc4)C(C)C3)c21 (stereo not given)	inactive	
COc1ccc(OC)c(CNC(=O)c2c3c(nc4ccccc24)C(=O)N(C2CCCCC2)C3)c1		inactive: 2.51%
O=C(NCc1ccccc1Cl)C1CCCN(S(=O)(=O)c2cccc3nsnc23)C1 (stereo not given)		inactive: 9.49%
CCOC(=O)c1c(C)[nH]c(C)c1S(=O)(=O)N1CCC(C(=O)N2CCN(c3cccc(Cl)c3)CC2)CC1		inactive: -5.16%
Cc1ccccc1-c1noc(-c2cccnc2NCc2ccco2)n1		inactive: 1.16%
COc1ccc(-c2cn3nc(N4CCCC(C(=O)Nc5cccc(Cl)c5C)C4)sc3n2)cc1 (stereo not given)		inactive: -9.78%
CN(C)CCNC(=O)c1ccc2c(c1)N(Cc1ccccc1)C(=O)c1ccccc1S2(=O)=O		inactive: -6.49%
CCCSc1ncc(Cl)c(C(=O)NCc2ccc(OC)cc2)n1	inactive	
CCOCCn1ccc2c(OCC(=O)NCc3ccc(C)cc3)cccc2c1=O		inactive: 5.1%
Cc1ccccc1NC(=O)CSc1nnc(COc2ccc(Cl)cc2)o1	inactive	
COc1ccccc1CNC(=O)CCn1c(=O)c2ccccc2n(CC(=O)Nc2ccc(Br)cc2F)c1=O	inactive	
Cc1ccc(O)c(NC(=O)c2noc3c2CCCC3)c1	inactive	
O=C(CN1C(=O)COc2ccc(S(=O)(=O)N3CCCC3)cc21)N1CCN(c2ccc(Cl)cc2)CC1		inactive: -21.7%
Cc1ccc2c(c1)N(S(=O)(=O)c1cc(-c3onc(C)c3C)ccc1C)CCO2	inactive	

SMILES	outcome	activity change, negative = inhibition
COc1cccc(-n2cc(C(=O)OCc3ccc(F)c(F)c3)c3ccccc3c2=O)c1		inactive: 4.41%
COCCCNC(=O)N1[C@H](c2cccs2)[C@@H](C)C(=O)[C@@H](C)[C@@H]1c1cccs1		inactive: -11.8%
O=C(Cn1cc(C(=O)c2ccncc2)c(=O)c2cc(F)ccc21)Nc1ccc(Cl)cc1	inactive	
COc1ccc(C(=O)Nc2nnc(S(=O)(=O)N3CCCc4ccccc43)s2)cc1		inactive: -2.79%
CCOc1ccccc1-n1nnc(-c2nc(-c3ccccc3C)no2)c1C		inactive: 10.9%
Cc1ccc2nc(-c3cccc(NC(=O)c4ccc(Br)o4)c3)oc2c1		inactive: -0.437%
O=C(O)c1cccc(Nc2ncnc3ccc(Br)cc23)c1		inactive: 0.119%
Cc1nn(C)c2c1c(C(F)(F)F)cc(=O)n2CC(=O)N1CCCCC1		inactive: 13.7%
CCOC(=O)c1c(NC(=O)c2ccc(Br)cc2)sc2c1CCCC2		inactive: 0.446%
CCCCNc1nc2c(c(=O)n(C)c(=O)n2C)n1CC(O)COc1ccccc1C (stereo not given)		inactive: 5.29%
O=C(Nc1ccc(F)c(Cl)c1)C1CCN(S(=O)(=O)c2ccc3[nH]c(=O)ccc3c2)CC1		inactive: -2.39%
Cc1ccccc1NC(=O)c1cccc2c(=O)c3c([nH]c12)CCCC3		inactive: 0.287%
Cc1ccc2cc(CN(C)C(=O)c3cccc(Cl)c3)c(=O)[nH]c2c1		inactive: -4.68%
Cc1ccc(Cl)cc1NC(=O)N1CCC(CN2CCCCCC2)CC1		inactive: -1.48%
Cc1ccc(NC(=O)CSc2ccc3nnc(CCNS(=O)(=O)c4ccccc4)n3n2)cc1Cl	inactive	
CCC1CN(C(=O)Nc2cc(C)ccc2OC)c2cc(Cl)ccc2O1 (stereo not given)		inactive: -17.1%
CCCCC(=O)OCc1cc(=O)n2nc(C3CCCCC3)sc2n1		inactive: 15%
CCOc1cc(N)c(Cl)cc1C(=O)NCC1CN(Cc2ccc(F)cc2)CCO1 (stereo not given)		inactive: 13.9%
Cc1cc(C)cc(OCC(=O)NC(Cc2c[nH]c3ccccc23)C(=O)O)c1 (stereo not given)		inactive: -8.19%
CCOc1ccc(S(=O)(=O)Nc2ccc3oc(C)c(C(=O)OC(C)C)c3c2)cc1		inactive: -2.77%

SMILES	outcome	activity change, negative = inhibition
Cc1cccc(OCC(=O)Nc2c(C(=O)N3CCN(c4ccccc4F)CC3)oc3ccccc23)c1		inactive: 28.3%
Cc1cc(C)n(-c2nc3ccccc3nc2Nc2ccc(Cl)c(Cl)c2)n1		inactive: -13.8%
COc1ccccc1NCc1cccn1-c1nnc(N2CCCCCC2)s1		inactive: -2.27%
O=C(Nc1ccccc1)N(Cc1cccs1)c1ccc(F)cc1		inactive: 2.4%
COc1ccc(C2c3c(n(C)c4ccccc34)C(=O)N2CC(=O)Nc2cc(Cl)ccc2C)cc1 (stereo not given)		inactive: 9.12%
Cc1ccc2onc(CC(=O)Nc3cccc(C(F)(F)F)c3)c2c1		inactive: -14%
CCCN(C(=O)c1cc2c(=O)oc3ccccc3c2s1)c1cccc(Cl)c1		inactive: 17.7%
CCOC(=O)N1CCN(C(=O)CN(c2cccc(Cl)c2)S(=O)(=O)c2ccccc2)CC1	inactive	
CCCc1cc(=O)n2[nH]c(NC(=O)c3ccccc3Cl)nc2n1		inactive: 3.65%
CCOC(=O)c1ccc(N2C(=O)c3[nH]nc(-c4ccc(OC)cc4)c3C2c2ccccc2Cl)cc1 (stereo not given)		inactive: 7.04%
Cc1ccc(NC(=O)N2CCc3cc(S(=O)(=O)N4CCC(C)CC4)ccc32)cc1F		inactive: 0.342%
Cc1ccc(CNC(=O)CCCn2nc(C)c3c(C)n(-c4ccccc4)nc3c2=O)cc1	inactive	
CCOC(=O)c1c(NC(=O)CSc2cn(CCNC(=O)c3ccc(OC)c(OC)c3)c3ccccc23)sc2c1CCCC2	inactive	
CCc1cccc(NS(=O)(=O)c2ccc3c(c2)n(C)c(=O)c(=O)n3C)c1		inactive: 7.11%
COc1cccc(CNC(=O)c2cc(S(=O)(=O)N3CCCCCC3)cn2C)c1		inactive: -10.3%
CCOC(=O)c1sc(N2C(=O)c3oc4ccc(C)cc4c(=O)c3C2c2ccccc2F)nc1C (stereo not given)		inactive: -2.02%
CCOC(=O)CSc1nc2cc3c(cc2c(=O)n1CCCC(=O)NCCc1ccc(OC)c(OC)c1)OCO3	inactive	
COc1ccc(-c2cc(-c3ccc4c(c3)NC(=O)CO4)nc3c2COc2ccc(F)cc2-3)cc1	inactive	
CCOC(=O)c1ccc(-n2c(-c3ccc(C)cc3)c(C)n3c4c(=O)n(C)c(=O)n(C)c4nc23)cc1	inactive	
CCc1nonc1NC(=O)c1oc2ccc(C)cc2c1C	inactive	
